Reference: the supplement of paper PMC11417369
This is one part of the list.

tested on: PfHDP1 homeodomain (GST-tagged); experiment: gcPBM binding intensity (ln(normalized median fluorescence intensity)); higher = stronger DNA binding
Summary of the method: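 An Agilent 4 × 180k array of primer-extended double-stranded 36-bp intergenic genomic probes, with negative controls, was incubated for 1 h with GST-tagged P. falciparum DNA-binding domains expressed in E. coli. Alexa488 anti-GST antibody detected bound protein, scanned at 488 nm. Binding intensity is the highest Masliner-normalised natural-log median intensity across replicate spots of either probe orientation.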

Q: “ATAAATACGATTAATTAGGTTTGTATAAATTAAATT [GTGCAC_negctrl_site635]” was tested. Which “gcPBM binding intensity (ln)” value did it give?
A: Its value is 6.14.

Q: How did the “gcPBM binding intensity (ln)” value turn out when “AATATCACATTCCACGGTACACACTAAAAGAAAAAT [XGTACX_site7653]” was run?
A: The value was 6.9.

Q: How did the “gcPBM binding intensity (ln)” value turn out when “ATAACTTTTGCGCGTACACACATTTATCCTCTTTAT [CACACA_site209]” was run?
A: The value was 8.29.

Q: “TCATGTAGTAAAAACTGTACAAATTATTTATCATGT [XGTACX_site1727]” was tested. Which “gcPBM binding intensity (ln)” value did it give?
A: The value was 6.53.

Q: For “GGGTATACCAATATAACACACATATATATATAATAT [CACACA_site450]”, which “gcPBM binding intensity (ln)” value is on record?
A: The value was 6.69.

Q: With “ATAAGCATACATATTACACACATATAACATCTATAT [CACACA_site7219]” as the sequence, how does the “gcPBM binding intensity (ln)” value read?
A: Its value is 6.97.

Q: “AAATTATTAAAAAAGTGTACATATTTTTATAATACC [XGTACX_site5610]” was tested. Which “gcPBM binding intensity (ln)” value did it give?
A: The value was 6.35.

Q: How did the “gcPBM binding intensity (ln)” value turn out when “TATTTTTTTTCAAAAAAGTTTATTTAGAACTAAATA [XGTACX_negctrl_site487]” was run?
A: Its value is 5.79.

Q: With “TTAATCAAATTACTATGTACATAAAACATATAAGAA [XGTACX_site381]” as the sequence, how does the “gcPBM binding intensity (ln)” value read?
A: The value was 6.85.

Q: For “ATAAATTGATTCAACACACACATATGTAGGAAGTTA [CACACA_site3253]”, which “gcPBM binding intensity (ln)” value is on record?
A: The value was 6.61.

Q: How did the “gcPBM binding intensity (ln)” value turn out when “AAAAAAAAAAAAAGTACACACATACAGATAAATATA [CACACA_site5067]” was run?
A: The value was 6.46.

Q: How did the “gcPBM binding intensity (ln)” value turn out when “CTTTTTCTTTTCCGGCGTACAGACTTAGTAGTAGAT [XGTACX_site2268]” was run?
A: The value was 6.69.

Q: “ACTAATACATAAAAAAGTACAAATATGAGTATTAAC [XGTACX_site7281]” was tested. Which “gcPBM binding intensity (ln)” value did it give?
A: The value was 6.94.

Q: Which “gcPBM binding intensity (ln)” value does the source give for AATATTCAATATAAAGTGCATTATTGTGGACCTAAT here?
A: Its value is 8.94.

Q: “TATATAGCTAAAAACACACAAATATGTACACATAAA [CACACA_site7665]” was tested. Which “gcPBM binding intensity (ln)” value did it give?
A: Its value is 6.83.

Q: For “TACATGCAAAAAATTCCACACACACCCCCACATATA [CACACA_site8329]”, which “gcPBM binding intensity (ln)” value is on record?
A: The value was 7.49.

Q: With “TACTTCATTCATTTTACACACATATAAACCCTTTTA [CACACA_site3229]” as the sequence, how does the “gcPBM binding intensity (ln)” value read?
A: Its value is 7.15.

Q: How did the “gcPBM binding intensity (ln)” value turn out when “TAAAATATAGGAAATACATGCATATTAAATATTCCT [TGCATGCA_site1057]” was run?
A: Its value is 6.11.

Q: For “ATAGTTAAAAAAAAAAAAAAAAAAAAAAGAGAGAGA [CACACA_negctrl_site1307]”, which “gcPBM binding intensity (ln)” value is on record?
A: The value was 6.36.

Q: How did the “gcPBM binding intensity (ln)” value turn out when ACAATAAAGAACAGTATGCACTTTTATGCATGCGTA was run?
A: The value was 7.42.

Q: With “AAATATACATACATATGTACATATATATATATATAT [XGTACX_site8202]” as the sequence, how does the “gcPBM binding intensity (ln)” value read?
A: The value was 9.24.

Q: How did the “gcPBM binding intensity (ln)” value turn out when “ATGAATTAATCTAATCGTACAATAAGCATTATTATA [XGTACX_site2571]” was run?
A: The value was 6.25.

Q: For “GAATATGTAAAGAAAGGTACACATGAAAATATGTGT [XGTACX_site446]”, which “gcPBM binding intensity (ln)” value is on record?
A: Its value is 6.09.

Q: “TGTACCTACAAAATATGATATATTTTTATAAATTGT [XGTACX_negctrl_site498]” was tested. Which “gcPBM binding intensity (ln)” value did it give?
A: Its value is 6.41.

Q: For “TAGAAAATCAGTTAAACACACACATAAAAAAAAAAA [CACACA_site8933]”, which “gcPBM binding intensity (ln)” value is on record?
A: Its value is 6.4.

Q: Which “gcPBM binding intensity (ln)” value does the source give for “TTCTTATTTGTACTAGTGCAATAGAAAATAAATAAA [GTGCAC_site9731]” here?
A: Its value is 9.74.

Q: “TATATAATATATATATGTACACATTTGCAAACAATG [XGTACX_site6941]” was tested. Which “gcPBM binding intensity (ln)” value did it give?
A: Its value is 8.64.

Q: “AATACAATAAAAAAAAGTACACATGTATAAAAAATT [XGTACX_site8270]” was tested. Which “gcPBM binding intensity (ln)” value did it give?
A: Its value is 6.85.

Q: How did the “gcPBM binding intensity (ln)” value turn out when “AATATATCTTATTTAACACACACAAAGAAAATAGAA [CACACA_site9242]” was run?
A: Its value is 7.34.

Q: With “TGTTATCAGAAAGCACGTACATATAATTATATATTC [XGTACX_site4188]” as the sequence, how does the “gcPBM binding intensity (ln)” value read?
A: Its value is 6.73.

Q: Which “gcPBM binding intensity (ln)” value does the source give for “TATATATATATACATACATGCATATATATATATATA [TGCATGCA_site513]” here?
A: Its value is 9.41.

Q: “ATAATAATATAAAATACACACCTATTATTTTTACAA [CACACA_site6069]” was tested. Which “gcPBM binding intensity (ln)” value did it give?
A: The value was 6.72.

Q: How did the “gcPBM binding intensity (ln)” value turn out when “CCACATATACAAAACACACACACAACGTTTTAATAA [CACACA_site1978]” was run?
A: Its value is 6.84.

Q: Which “gcPBM binding intensity (ln)” value does the source give for “ACAAGAGAAGTAATTGCACACGTTGTTTCTTTTTCT [CACACA_site35]” here?
A: The value was 9.23.

Q: With “TCACTATAGTAATTTACACACATTTGAAGAAAATGT [CACACA_site7626]” as the sequence, how does the “gcPBM binding intensity (ln)” value read?
A: The value was 6.58.

Q: How did the “gcPBM binding intensity (ln)” value turn out when “ATTATTTAGAAATGAGCACACAAAAAGAAGAATTTT [CACACA_site7913]” was run?
A: Its value is 7.06.

Q: For “TATTTATTTATTTATGCATGCATGAATAATTTTTAC [TGCATGCA_site31]”, which “gcPBM binding intensity (ln)” value is on record?
A: Its value is 6.73.

Q: With “GAAAACATTAAAAGTTAGATCATAAGAAAAGAATAT [GTGCAC_negctrl_site726]” as the sequence, how does the “gcPBM binding intensity (ln)” value read?
A: The value was 6.62.

Q: For “CATATATGTGATAACACGCACACAAATGTATAGAAT [CACACA_site2594]”, which “gcPBM binding intensity (ln)” value is on record?
A: Its value is 6.81.

Q: Which “gcPBM binding intensity (ln)” value does the source give for “GTTCATCACATATACACATGCATATTCTAATATGTA [TGCATGCA_site809]” here?
A: Its value is 7.25.

Q: How did the “gcPBM binding intensity (ln)” value turn out when “ACATTATATAAAATATGTACATATAAAAAATTCTAT [XGTACX_site1617]” was run?
A: Its value is 6.63.

Q: Which “gcPBM binding intensity (ln)” value does the source give for “TTATCATTTGGACACGCACACACACCGAAAAAGAAA [CACACA_site8008]” here?
A: Its value is 7.13.

Q: Which “gcPBM binding intensity (ln)” value does the source give for “AATAATTTAAGGAATACACACAAGAAAAAAATAAGA [CACACA_site60]” here?
A: Its value is 7.43.

Q: How did the “gcPBM binding intensity (ln)” value turn out when “TTTTTGTAATTATATTAATATATATATATATATATA [CACACA_negctrl_site198]” was run?
A: The value was 9.1.

Q: How did the “gcPBM binding intensity (ln)” value turn out when “TTTTTTGCTAAAAAGAGTACTAATAAAAAATTTATT [XGTACX_site5235]” was run?
A: The value was 6.02.
